# Test results taken from PubChem BioAssay AID995 (National Center for Advancing Translational Sciences (NCATS), 2007).
# Hit rate of the full screen: of about 72,000 compounds, about 710 (0.99%) were called active. Inconclusive results, whose numbers are uncertain, are shown with a selection of clear calls. Calls come from the whole dose curve; as a rule, active = well fitted inhibition curve with a large enough effect; inconclusive = small, poorly fitted or top-dose-only effect; inactive = no such curve, though single readings can be large or run the other way. Potencies of inconclusive entries are left out as doubtful fits.
# Test: qHTS Assay for Inhibitors of the ERK Signaling Pathway using a Homogeneous Screening Assay; note: nearly all actives have a fitted effect of over 55% in size
# Settings: HEK293-V1b, vasopressin-stimulated pERK AlphaScreen; activity, negative = inhibition: at 57.5 µM (top of the series) unless noted
# Procedure, shortened: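 Overnight-seeded V1b-HEK293 cells in 1% FBS got compound, then vasopressin (25 nM final, 5 min, 37C), then lysis buffer. AlphaScreen detection of phospho-ERK; activity normalized to basal and full-stimulation controls.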
# % is set by controls: 0 for no effect and ±100 for the full control effect; potency is the fitted concentration of half-maximal effect; tags give direction and shape of the fitted curve.
SMILES,Potency,"activity, negative = inhibition"
CN(Cc1ccco1)c1ncnc2ccc(-c3ccoc3)cc12,inactive,–
CN(C)c1ccc(-c2cncnc2Nc2ccccc2)cc1,"inconclusive [inhibitor, partial curve]",–
CN(C)c1ccc(C2=NOC(CN3C(=O)c4ccccc4S3(=O)=O)C2)cc1 (configuration not stated),"inconclusive [inhibitor, single point]",–
CSc1nc(NC(C)(C)C)nc(Oc2ccc(=O)[nH]n2)n1,inactive,–
O=C(NC1CCCCC1)C(c1ccncc1)N(C(=O)Cn1nnc(-c2cccs2)n1)C1CCCC1 (configuration not stated),inactive,–
O=C(C[C@@H]1C=Cc2ccccc2N1C(=O)c1ccccc1)c1ccccc1,–,inactive: 13.4% [at 11.5 µM]
COc1ccc(C2=NOC(C(=O)Nc3cc(C)nn3-c3ccccc3)C2)cc1OC (configuration not stated),"inconclusive [inhibitor, partial curve]",–
CCOC(=O)CSc1nc2c(sc(=S)n2Cc2ccco2)c(=O)n1-c1ccc(F)cc1,"inconclusive [inhibitor, single point]",–
C[C@@H](CC(=O)O)[C@@H](N)C(=O)O,inactive,–
O=C(Nc1nsc(-c2ccccc2)n1)c1cccs1,"inconclusive [inhibitor, full curve, poor fit]",–
O=S(=O)(Nc1ccc2c(c1)nc1n2CCOC1)c1ccc(Cl)cc1,"inconclusive [inhibitor, single point]",–
COc1ccc(O[C@H]2C=C[C@@H](c3ccccc3)O[C@H]2COC(=O)CC/C(C)=N\O[C@@H](C)c2cn([C@H]3COC[C@H]3O)nn2)cc1,–,inactive: -21% [at 11.5 µM]
O=C(NCc1ccccn1)c1ccc(CS(=O)(=O)Cc2ccc(Cl)cc2)o1,inactive,–
COc1ccc(C2C3=C(OC(C)=O)c4ccccc4C3=Nc3c2c(=O)n(C)c(=O)n3C)cc1 (configuration not stated),"inconclusive [inhibitor, full curve]",–
CCOc1ccccc1-n1nnnc1SCc1nc2ccccc2s1,"inconclusive [inhibitor, full curve, poor fit]",–
COc1ccc(CCN2C(=O)c3[nH]nc(-c4ccccc4O)c3C2c2ccc(C)cc2)cc1OC (configuration not stated),"inconclusive [inhibitor, partial curve, poor fit]",–
O=C(C1CC1)n1cc(C(=S)N2CCOCC2)c2ccccc21,"inconclusive [inhibitor, partial curve]",–
Cc1ccccc1-c1ccc2ncnc(NCCN3CCOCC3)c2c1,active: 25.1 µM,–
CCSc1nc2c(c(=O)[nH]c(=O)n2C)n1C/C=C(/C)Cl,"inconclusive [inhibitor, full curve, poor fit]",–
C=C(C)Cn1c(Sc2nnc(C)s2)nc2c1c(=O)[nH]c(=O)n2C,"inconclusive [inhibitor, single point]",–
C=CCNc1nc(-c2ccccc2)nc(-n2ccnc2)n1,"inconclusive [inhibitor, partial curve]",–
CN(C)c1ccc(O)c2c1C[C@@H]1C[C@H]3C(N(C)C)C(=O)C(C(N)=O)=C(O)[C@@]3(O)C(=O)C1=C2O (some centres not stated),inactive,–
COc1ccc(OC)c(-c2cc(C(=O)Nc3cc(C)on3)no2)c1,"inconclusive [inhibitor, partial curve]",–

SMILES,Potency,"activity, negative = inhibition"
O=C1c2ccccc2C(Nc2cccnc2)N1Cc1ccccc1Cl (configuration not stated),"inconclusive [inhibitor, partial curve, poor fit]",–
CCOc1ccc(OCC(=O)c2c(O)c3ccccc3oc2=O)cc1,inactive,–
Cc1nn(Cc2ccccc2)c(Cl)c1C(=O)OCc1nnc(-c2ccccc2)o1,inactive,–
Nc1n[nH]c(-c2ccc(Br)cc2)c1Cl,"inconclusive [inhibitor, single point]",–
CCCCCCCCCCCC(=O)O[C@H](CC(=O)O)C[N+](C)(C)C,inactive,–
CCC1C(=O)n2nc(-c3ccccc3)cc2N=C1C (configuration not stated),"inconclusive [inhibitor, single point]",–
Cn1cccc1Cc1nnc(SCC(=O)NCc2ccccc2)n1-c1ccc(F)cc1,"inconclusive [inhibitor, single point]",–
COc1ncc2nc(C)c(=O)n(CCc3ccccc3)c2n1,inactive,–
CC(C)OC(=O)c1cc2c(OC[C@@H](O)CNC(C)(C)C)cccc2[nH]1,inactive,–
CCCOc1ccc2c3c(c(=O)oc2c1)CCCC3,"inconclusive [inhibitor, partial curve]",–
Cc1ncsc1CCSc1n[nH]c(=O)n1-c1ccccc1,"inconclusive [inhibitor, single point]",–
CCOC(=O)c1c(C)[nH]c(C(=O)COC(=O)c2cn(CC)c3nc(C)ccc3c2=O)c1C,"inconclusive [inhibitor, partial curve]",–
C#CCCCO/N=C1/C[C@@H](O)[C@@H](O)[C@@H]2[C@@H]3C(=O)N([C@@H](C)c4ccccc4)C(=O)[C@H]3CC[C@@H]12,–,inactive: 21.7% [at 11.5 µM]
CC(=O)c1c(C)n(C)c2ccc(OC(=O)c3ccco3)cc12,inactive,–
CNc1nc(Nc2ccc(C(C)=O)cc2)nc(OC(C(F)(F)F)C(F)(F)F)n1,"inconclusive [inhibitor, full curve, poor fit]",–
Cc1ccc2c(c1)c1ncnc(N3CCc4ccccc4C3)c1n2C,"inconclusive [inhibitor, single point]",–
CCn1nc(C(=O)OCC(=O)c2c[nH]c3ccccc23)c2ccccc2c1=O,"inconclusive [inhibitor, partial curve]",–
O=C(COc1ccccc1)N1CCN(c2ncnc3c2cnn3-c2ccccc2)CC1,active: 25.1 µM,–
COC(=O)c1[nH]c2cccc(OC)c2c1NC(=O)CCN1CCN(c2ccccc2OC)CC1,"inconclusive [inhibitor, partial curve, poor fit]",–
COc1ccc(-n2c(Cc3cccn3C)nnc2SCC(=O)Nc2cccc(OC)c2)cc1,"inconclusive [inhibitor, single point]",–
N=c1c2c(-c3ccccc3)c(-c3ccccc3)oc2ncn1CCN1CCOCC1,"inconclusive [inhibitor, single point]",–
CCCCOC(=O)C(C#N)c1nc2ccccc2nc1N1CCN(Cc2ccc3c(c2)OCO3)CC1 (configuration not stated),inactive,–
c1ccc(CNc2ncnc3nc[nH]c23)cc1,inactive,–

SMILES,Potency,"activity, negative = inhibition"
COc1cccc(C(=O)Cn2c(N3CCCCC3)nc3c2c(=O)n(C)c(=O)n3C)c1,"inconclusive [inhibitor, partial curve, poor fit]",–
c1cnc2c(OCc3nc4ccccc4[nH]3)cccc2c1,"inconclusive [inhibitor, partial curve]",–
Cc1ccc(C(=O)CSc2nnc(CNc3nc(-c4ccccc4)cs3)n2C)cc1,active: 12.6 µM,–
CCn1c(=O)n(CC(=O)NCc2ccccc2OC)c(=O)c2ccccc21,"inconclusive [inhibitor, single point]",–
CCc1nnc(NC(=O)CSc2nnc(-c3ccccc3O)n2-c2ccc(C)cc2)s1,"inconclusive [inhibitor, partial curve]",–
CCNc1ncc2nc(-c3ccccc3)c(=O)n(C[C@H]3CCCO3)c2n1,inactive,–
Cc1noc(C)c1COC(=O)c1cccc(S(=O)(=O)N2CCCCCC2)c1,"inconclusive [inhibitor, partial curve]",–
COc1cccc(NC(=O)CSc2nnc(Cn3c(=O)sc4ccccc43)n2C)c1,"inconclusive [inhibitor, partial curve]",–
CCOc1cc(-c2nc3ccccn3c2NCC2CCCO2)ccc1O (configuration not stated),"inconclusive [inhibitor, partial curve]",–
COc1ccc(C(=O)Nc2cccc3c2C(=O)NC3=O)cc1S(=O)(=O)N1CCOCC1,–,inconclusive: -31% [inhibitor]
COc1cc2c(cc1OC)-c1cc(NC3CCCCCC3)nc(=O)n1CC2,"inconclusive [inhibitor, partial curve]",–
CCCn1c(-c2ccc(F)cc2)nc2c(NCCN(C(C)C)C(C)C)nc(C)nc21,inactive,–
C=CCn1c(N)c(S(=O)(=O)c2cccs2)c2nc3ccccc3nc21,"inconclusive [inhibitor, partial curve]",–
O=C(Nc1cccc(NC(=O)N2CCN(c3ccccc3)CC2)c1)N1CCN(c2ccccc2)CC1,"inconclusive [inhibitor, single point]",–
O=C(NCCN1CCOCC1)c1cc(-c2ccc(Br)cc2)on1,"inconclusive [inhibitor, full curve, poor fit]",–
CC12CCC3c4ccc(OCc5ccccc5)cc4CCC3C1CC(O)C2O (configuration not stated),"inconclusive [inhibitor, single point]",–
C=COCCNC(=O)Nc1ccc(Cl)c(Cl)c1,"inconclusive [inhibitor, partial curve, poor fit]",–
CCCCn1c(SCC(=O)Nc2nnc(C(C)C)s2)nc2c1c(=O)n(C)c(=O)n2C,"inconclusive [inhibitor, partial curve]",–
CCCc1cc(Nc2cccc(OC)c2)n2ncnc2n1,"inconclusive [inhibitor, partial curve]",–
OC[C@H]1O[C@H](n2cnc3c(NC4CCCC4)nc(Cl)nc32)[C@@H](O)[C@@H]1O,"inconclusive [inhibitor, partial curve, poor fit]",–
COc1ccc(-c2cnnn2-c2ccc(NC(=O)c3ccco3)cc2)cc1OC,active: 15.8 µM,–
